Assay results taken from the supplement of paper PMC10126150.
Values marked as one replicate rest on one cluster of the flow cell; about a third of the high ones do not repeat.
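Further: ATP exposure 15 min at 22 °C before imaging.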

Each sequence was assayed on ATP (assay: switch fluorescence ratio, 500 uM ATP over buffer (Cy3 cluster intensity, sum of 5 cycles each) (fold (ratio)); higher = stronger signal-on switching upon ATP binding; sequences stand for … in TCGTCGGCAGCGTCAGATGTGTATAAGAGACAGTTTTTTTTTTTTTTTTTTTTTTTTT…TC). Conditions: aptamer strand: ATP DNA aptamer (quencher-CACCTGGGGGAGTATTGCGGAGGAAGG + anchor), 100 nM annealed; ATP concentration: 500 uM; one replicate.
How it was run: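 For every switch-domain sequence, the fluorescence ratio is the mean of per-cluster values, each being summed target-cycle Cy3 intensity over summed buffer-cycle Cy3 intensity. Clusters outside 100-1000 RFU were excluded. On a modified Illumina MiSeq flow-cell, the Cy3-labelled switching-strand clusters were annealed to 100 nM quencher-labelled ATP aptamer, imaged in selection buffer and then after 15 min with 500 uM ATP at 22 °C. Five such cycles were run, with NaOH stripping and re-annealing between them.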
For GCATCAGACA, the switch fluorescence ratio was 1.02.
Work on ATGGTGGTAC yielded a switch fluorescence ratio of 1.05.
TCGCAGGCTG gave a switch fluorescence ratio of 0.934.
GCCATTTCAC gave a switch fluorescence ratio of 0.988.
TCAGTTCTAA was tested, and the switch fluorescence ratio was 0.986.
In the case of TTACTCGTTC, the switch fluorescence ratio is reported as 1.07.
GATTCCTACA was tested, and the switch fluorescence ratio was 1.06.
For TTTGCCAGCG, the switch fluorescence ratio was 1.03.
Work on TATTTACTGA yielded a switch fluorescence ratio of 1.2.
With ATTCTGGTGA the switch fluorescence ratio was 1.03.
GACTTGAAAA showed a switch fluorescence ratio of 1.03.
For TCCTCCATC, the switch fluorescence ratio was 3.41.
For TGAGCGAACT, the switch fluorescence ratio was 1.04.
Work on ATCACGGCGG yielded a switch fluorescence ratio of 1.03.
Work on AGACCCAACT yielded a switch fluorescence ratio of 1.06.
In the case of TGATACTCCT, the switch fluorescence ratio is reported as 1.38.
Work on AATGCTGCCC yielded a switch fluorescence ratio of 1.04.
Sequence GCTAGGTTAT has a switch fluorescence ratio of 0.985.
CCGAGGGTTC gave a switch fluorescence ratio of 1.66.
With ATCAATAGCC the switch fluorescence ratio was 1.05.
AATGGATGCT was tested, and the switch fluorescence ratio was 1.01.
For TAAAGAGCCA, the switch fluorescence ratio was 0.982.
Work on TACTCGCGGG yielded a switch fluorescence ratio of 0.972.
With CTTGGCTGCA the switch fluorescence ratio was 1.02.
In the case of TAAGTCAGAA, the switch fluorescence ratio is reported as 0.969.
CGAGCGTGGT showed a switch fluorescence ratio of 0.979.
Sequence CATTGGCGTC has a switch fluorescence ratio of 1.02.
Sequence CACTCAGGTC has a switch fluorescence ratio of 1.2.
ACGTCAGGAG gave a switch fluorescence ratio of 1.05.
AGGGGTAGCA showed a switch fluorescence ratio of 0.962.
CTTGCTTTTC was tested, and the switch fluorescence ratio was 1.
AGTTGTTTAT was tested, and the switch fluorescence ratio was 1.
GAGACTTGAA gave a switch fluorescence ratio of 1.
Sequence GAGCTTATA has a switch fluorescence ratio of 1.08.
TTTCGCGACT gave a switch fluorescence ratio of 1.74.
With CGTACTTGAC the switch fluorescence ratio was 1.14.
Work on ACAACTTTTA yielded a switch fluorescence ratio of 1.04.
AGTCAACTTC showed a switch fluorescence ratio of 0.987.
With TTTCGTTAGA the switch fluorescence ratio was 1.02.
With CGGCATCGGG the switch fluorescence ratio was 1.02.
With TTTAGACGAT the switch fluorescence ratio was 1.02.
For CATTTTGATT, the switch fluorescence ratio was 0.99.
For CCGAAGTTGG, the switch fluorescence ratio was 1.8.
CGATATTCTA showed a switch fluorescence ratio of 1.05.
With GCACTCCTTA the switch fluorescence ratio was 1.01.
Work on GCTACGTTGT yielded a switch fluorescence ratio of 1.02.
CACTCTTCGA gave a switch fluorescence ratio of 0.989.
AAGTCTGTAA gave a switch fluorescence ratio of 1.02.
With ACTGTGACAA the switch fluorescence ratio was 1.09.
With GAGAGTTTTA the switch fluorescence ratio was 0.996.
In the case of CCATCACCT, the switch fluorescence ratio is reported as 1.19.
For CGACGGAGAG, the switch fluorescence ratio was 1.14.
With TACGGCTTCA the switch fluorescence ratio was 1.04.
GGGGCTCAGT gave a switch fluorescence ratio of 0.942.
Work on ATGTCATGGT yielded a switch fluorescence ratio of 0.941.
In the case of CAAAGACCTA, the switch fluorescence ratio is reported as 1.02.
For GTATGTGATG, the switch fluorescence ratio was 0.957.
With TCATCTGGAC the switch fluorescence ratio was 1.08.
Work on TGCAGCCCAC yielded a switch fluorescence ratio of 1.41.
Sequence GAATTAAGGG has a switch fluorescence ratio of 1.01.
With CCCAGCTTGG the switch fluorescence ratio was 1.07.
ACCAAGGCG showed a switch fluorescence ratio of 1.07.
TAATGCCGAA showed a switch fluorescence ratio of 1.03.
For AGCGAAAACT, the switch fluorescence ratio was 1.52.
ATAAAGCTAT gave a switch fluorescence ratio of 1.01.
Work on GAAACGTCCG yielded a switch fluorescence ratio of 1.02.
For GTAGTGC, the switch fluorescence ratio was 1.07.
Sequence CACTACGCCA has a switch fluorescence ratio of 2.61.
Sequence TGCCGAGCAC has a switch fluorescence ratio of 1.56.
Work on GGTGGGGTCT yielded a switch fluorescence ratio of 0.983.
AACTATGTCT was tested, and the switch fluorescence ratio was 0.96.
In the case of TGTCTAAAGA, the switch fluorescence ratio is reported as 0.962.
Sequence ATGAGAAAAT has a switch fluorescence ratio of 0.981.
For GCTGCAGACC, the switch fluorescence ratio was 1.09.
TGAACCGGTA was tested, and the switch fluorescence ratio was 1.01.
Work on TTAACGGCTT yielded a switch fluorescence ratio of 1.05.
TTTGTAATTA was tested, and the switch fluorescence ratio was 0.994.
CTTGATCTTA gave a switch fluorescence ratio of 0.933.
TGAACCTGTG gave a switch fluorescence ratio of 0.984.
AAAATATCGT was tested, and the switch fluorescence ratio was 1.04.
TCGGGCTCCG was tested, and the switch fluorescence ratio was 1.05.
In the case of CTGTTTCTCC, the switch fluorescence ratio is reported as 1.05.
CTTACCGGCG showed a switch fluorescence ratio of 0.94.
TCTATGGGGC was tested, and the switch fluorescence ratio was 0.989.
Sequence ACCGGCCGAT has a switch fluorescence ratio of 1.01.
With GGTGAGGCGG the switch fluorescence ratio was 0.968.
In the case of TTAGACTTTA, the switch fluorescence ratio is reported as 1.02.
CGTGCAGTAT was tested, and the switch fluorescence ratio was 1.06.
Sequence AGACCGCTCT has a switch fluorescence ratio of 1.
Sequence ATTTAGAAGA has a switch fluorescence ratio of 0.996.
Sequence CCTGTCGGCT has a switch fluorescence ratio of 1.
GATGGATCTT gave a switch fluorescence ratio of 1.01.
CTCTCCAGCC was tested, and the switch fluorescence ratio was 2.32.
Sequence CTTGTTAATT has a switch fluorescence ratio of 0.989.
CGACAAGTGG gave a switch fluorescence ratio of 0.944.
CGAGGACGAT was tested, and the switch fluorescence ratio was 1.01.
Work on ACTGCTTATG yielded a switch fluorescence ratio of 0.962.
With TACTAGAAGC the switch fluorescence ratio was 1.02.
CCGCACGATT gave a switch fluorescence ratio of 2.47.
In the case of AATGTAATAC, the switch fluorescence ratio is reported as 3.82.
